# The supplement of paper PMC8728848
# The other results are listed elsewhere or left out.
# B1: Cohesin-marm-DC-ASGPR-CRD (protein)
# chain: LDITSHHHHHHDDLDAVRIKVDTVNAKPGDTVRIPVRFSGIPSKGIANCDFVYSYDPNVLEIIEIEPGDIIVDPNPDKSFDTAVYPDRKIIVFLFAEDSGTGAYAITKDGVFATIVAKVKEGAPNGLSVIKFVEVGGFANNDLVEQKTQFFDGGVNVGDTTEPATPTTPVTTPTTTDDLDAASCPINWVEHQGSCYWFSRSGKTWPEAERYCQLENTHLVVINSREEQNFVQAHLGSAYTWMGLSDPEGVWKWVDGTDYSSGFQNWKPGQPDDWQGHGLGGGEDCAHFHPDGRWNDDVCQRSYHWVCEAGLTQASQDSH
# Columns and labels:
# Test in all cases: glycan array binding signal (z-score within array); higher = stronger binding
# Details in all cases: glycan notation: IUPAC condensed, linker removed
# Glc(b1-6)Glc = biological target: Glc(b1-6)Glc
# Summary of the method: (§1)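 Arrays were curated from the Consortium for Functional Glycomics database, 3228 in total, and kept only where the protein sequence was available. Binding is expressed as a within-array Z-score. This score was averaged across arrays of the same protein sequence at different concentrations or buffers and across linkers, and negative values can be read as non-binding.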
# GlcA(b1-3)Gal = biological target: GlcA(b1-3)Gal
# Summary of the method: as §1
# GlcA(b1-3)GlcNAc = biological target: GlcA(b1-3)GlcNAc
# Summary of the method: as §1
# GlcA(b1-6)Gal = biological target: GlcA(b1-6)Gal
# Summary of the method: as §1
# [1] = biological target: GlcA3S(b1-3)Gal(b1-4)GlcNAc(b1-2)Man
# Summary of the method: as §1
# [2] = biological target: GlcA3S(b1-3)Gal(b1-4)GlcNAc(b1-3)Gal(b1-4)Glc
# Summary of the method: as §1
# [3] = biological target: GlcNAc(a1-3)Gal(b1-4)GlcNAc
# Summary of the method: as §1
# [4] = biological target: GlcNAc(a1-4)Gal(b1-3)GlcNAc
# Summary of the method: as §1
# [5] = biological target: GlcNAc(a1-4)Gal(b1-4)GalNAc
# Summary of the method: as §1
# [6] = biological target: GlcNAc(a1-4)Gal(b1-4)GlcNAc
# Summary of the method: as §1
# [7] = biological target: GlcNAc(a1-4)Gal(b1-4)GlcNAc(b1-3)Gal(b1-4)Glc
# Summary of the method: as §1
# [8] = biological target: GlcNAc(a1-4)Gal(b1-4)GlcNAc(b1-3)Gal(b1-4)GlcNAc
# Summary of the method: as §1
# [9] = biological target: GlcNAc(a1-4)Gal(b1-4)GlcNAc(b1-3)Gal(b1-4)GlcNAc(b1-3)Gal(b1-4)GlcNAc
# Summary of the method: as §1
# [10] = biological target: GlcNAc(a1-4)Gal(b1-4)GlcNAc(b1-3)Gal(b1-4)[Fuc(a1-3)]GlcNAc(b1-3)Gal(b1-4)[Fuc(a1-3)]GlcNAc
# Summary of the method: as §1
# [11] = biological target: GlcNAc(a1-6)Gal(b1-4)GlcNAc
# Summary of the method: as §1
# [12] = biological target: GlcNAc(b1-2)Gal(b1-3)GalNAc
# Summary of the method: as §1
# [13] = biological target: GlcNAc(b1-2)Man(a1-3)[GlcNAc(b1-2)Man(a1-6)]Man(b1-4)GlcNAc(b1-4)GlcNAc
# Summary of the method: as §1
# [14] = biological target: GlcNAc(b1-2)Man(a1-3)[GlcNAc(b1-2)Man(a1-6)]Man(b1-4)GlcNAc(b1-4)[Fuc(a1-6)]GlcNAc
# Summary of the method: as §1
# [15] = biological target: GlcNAc(b1-2)Man(a1-3)[GlcNAc(b1-4)][GlcNAc(b1-2)Man(a1-6)]Man(b1-4)GlcNAc(b1-4)GlcNAc
# Summary of the method: as §1
# [16] = biological target: GlcNAc(b1-2)Man(a1-3)[GlcNAc(b1-4)][GlcNAc(b1-2)Man(a1-6)]Man(b1-4)GlcNAc(b1-4)[Fuc(a1-6)]GlcNAc
# Summary of the method: as §1
# [17] = biological target: GlcNAc(b1-2)[GlcNAc(b1-4)]Man(a1-3)[GlcNAc(b1-2)Man(a1-6)]Man(b1-4)GlcNAc(b1-4)GlcNAc
# Summary of the method: as §1
# [18] = biological target: GlcNAc(b1-2)[GlcNAc(b1-4)]Man(a1-3)[GlcNAc(b1-4)][GlcNAc(b1-2)Man(a1-6)]Man(b1-4)GlcNAc(b1-4)GlcNAc
# Summary of the method: as §1
# [19] = biological target: GlcNAc(b1-2)[GlcNAc(b1-4)]Man(a1-3)[GlcNAc(b1-4)][GlcNAc(b1-2)[GlcNAc(b1-6)]Man(a1-6)]Man(b1-4)GlcNAc(b1-4)GlcNAc
# Summary of the method: as §1
# [20] = biological target: GlcNAc(b1-2)[GlcNAc(b1-4)]Man(a1-3)[GlcNAc(b1-4)][GlcNAc(b1-2)[GlcNAc(b1-6)]Man(a1-6)]Man(b1-4)GlcNAc(b1-4)[Fuc(a1-6)]GlcNAc
# Summary of the method: as §1
# [21] = biological target: GlcNAc(b1-2)[GlcNAc(b1-6)]Man(a1-6)[GlcNAc(b1-2)Man(a1-3)]Man(b1-4)GlcNAc(b1-4)GlcNAc
# Summary of the method: as §1
# [22] = biological target: GlcNAc(b1-2)[GlcNAc(b1-6)]Man(a1-6)[GlcNAc(b1-2)Man(a1-3)]Man(b1-4)GlcNAc(b1-4)[Fuc(a1-6)]GlcNAc
# Summary of the method: as §1
# [23] = biological target: GlcNAc(b1-2)[GlcNAc(b1-6)]Man(a1-6)[GlcNAc(b1-4)][GlcNAc(b1-2)Man(a1-3)]Man(b1-4)GlcNAc(b1-4)GlcNAc
# Summary of the method: as §1
# GlcNAc(b1-3)Fuc = biological target: GlcNAc(b1-3)Fuc
# Summary of the method: as §1
# GlcNAc(b1-3)Gal = biological target: GlcNAc(b1-3)Gal
# Summary of the method: as §1
# [24] = biological target: GlcNAc(b1-3)Gal(b1-3)GalNAc
# Summary of the method: as §1
# GlcNAc(b1-3)Gal(b1-4)Glc = biological target: GlcNAc(b1-3)Gal(b1-4)Glc
# Summary of the method: as §1
# [25] = biological target: GlcNAc(b1-3)Gal(b1-4)GlcNAc
# Summary of the method: as §1
# [26] = biological target: GlcNAc(b1-3)Gal(b1-4)GlcNAc(b1-2)Man(a1-3)[GlcNAc(b1-3)Gal(b1-4)GlcNAc(b1-2)Man(a1-6)]Man(b1-4)GlcNAc(b1-4)GlcNAc
# Summary of the method: as §1
# [27] = biological target: GlcNAc(b1-3)Gal(b1-4)GlcNAc(b1-2)Man(a1-3)[GlcNAc(b1-3)Gal(b1-4)GlcNAc(b1-2)Man(a1-6)]Man(b1-4)GlcNAc(b1-4)[Fuc(a1-6)]GlcNAc
# Summary of the method: as §1
# [28] = biological target: GlcNAc(b1-3)Gal(b1-4)GlcNAc(b1-2)[GlcNAc(b1-3)Gal(b1-4)GlcNAc(b1-6)]Man(a1-6)[GlcNAc(b1-3)Gal(b1-4)GlcNAc(b1-2)Man(a1-3)]Man(b1-4)GlcNAc(b1-4)GlcNAc
# Summary of the method: as §1
# [29] = biological target: GlcNAc(b1-3)Gal(b1-4)GlcNAc(b1-3)Gal(b1-4)GlcNAc
# Summary of the method: as §1
# [30] = biological target: GlcNAc(b1-3)Gal(b1-4)GlcNAc(b1-3)Gal(b1-4)GlcNAc(b1-2)Man(a1-3)[GlcNAc(b1-3)Gal(b1-4)GlcNAc(b1-3)Gal(b1-4)GlcNAc(b1-2)Man(a1-6)]Man(b1-4)GlcNAc(b1-4)GlcNAc
# Summary of the method: as §1
binder,measurement,setting,value
B1,glycan array binding signal (z-score),Glc(b1-6)Glc,-0.337
same,glycan array binding signal (z-score),GlcA(b1-3)Gal,-0.438
same,glycan array binding signal (z-score),GlcA(b1-3)GlcNAc,-0.411
same,glycan array binding signal (z-score),GlcA(b1-6)Gal,-0.392
same,glycan array binding signal (z-score),[1],-0.452
same,glycan array binding signal (z-score),[2],-0.459
same,glycan array binding signal (z-score),[3],-0.452
same,glycan array binding signal (z-score),[4],-0.446
same,glycan array binding signal (z-score),[5],-0.441
same,glycan array binding signal (z-score),[6],-0.446
same,glycan array binding signal (z-score),[7],-0.446
same,glycan array binding signal (z-score),[8],-0.441
same,glycan array binding signal (z-score),[9],-0.453
same,glycan array binding signal (z-score),[10],-0.371
same,glycan array binding signal (z-score),[11],-0.429
same,glycan array binding signal (z-score),[12],-0.437
same,glycan array binding signal (z-score),[13],-0.449
same,glycan array binding signal (z-score),[14],-0.436
same,glycan array binding signal (z-score),[15],-0.444
same,glycan array binding signal (z-score),[16],-0.453
same,glycan array binding signal (z-score),[17],-0.453
same,glycan array binding signal (z-score),[18],-0.436
same,glycan array binding signal (z-score),[19],-0.456
same,glycan array binding signal (z-score),[20],-0.448
same,glycan array binding signal (z-score),[21],-0.446
same,glycan array binding signal (z-score),[22],-0.461
same,glycan array binding signal (z-score),[23],-0.429
same,glycan array binding signal (z-score),GlcNAc(b1-3)Fuc,-0.428
same,glycan array binding signal (z-score),GlcNAc(b1-3)Gal,-0.448
same,glycan array binding signal (z-score),[24],-0.404
same,glycan array binding signal (z-score),GlcNAc(b1-3)Gal(b1-4)Glc,-0.44
same,glycan array binding signal (z-score),[25],-0.443
same,glycan array binding signal (z-score),[26],-0.454
same,glycan array binding signal (z-score),[27],-0.373
same,glycan array binding signal (z-score),[28],-0.195
same,glycan array binding signal (z-score),[29],-0.456
same,glycan array binding signal (z-score),[30],-0.41
